Source: PubChem BioAssay AID256 (DTP/NCI, 2004)
Inconclusive results and toxic doses are left out. The source holds more than one record for some entries. Only these are listed. An entry can have further records. The records of an entry differ for a reason that is not stated; they may come from other doses, times, organisms or constructs than stated.

System: CD2F1 mice, L1210 leukemia ip, survival T/C
Assay: NCI In Vivo Anticancer Drug Screen. Data for tumor model L1210 Leukemia (intraperitoneal) in CD2F1 (CDF1) mice
Conditions: higher = longer survival
Procedure: The antitumor activity of compounds was measured in mice bearing transplantable tumors. Survival or tumor size were measured and the results are expressed as the measurement made in the treated group (T) divided by the measurement made in the vehicle treated control group (C). The tumor model used in this assay is L1210 Leukemia (intraperitoneal) in CD2F1 (CDF1) mice

`Nc1ccn([C@@H]2C=C(CO)[C@@H](O)[C@H]2O)c(=O)n1` was tested, and the T/C (endpoint: median survival time, dose: 3.37 mg/kg/injection, schedule: Q01DX009 (oral), vehicle: saline) was 105 % of control and 150 % of control.

In the case of `CC(C)NC(=O)c1ccc(N=NN(C)C)cc1`, the T/C (endpoint: mean survival time, dose: 50.0 mg/kg/injection, schedule: Q01DX009 (ip), vehicle: other) is reported as 120 % of control, 121 % of control, 154 % of control.

`O=C1NC(=O)C2C3C=CC(C12)C1C2C(=O)NC(=O)C2C31` (stereo not given) was tested, and the T/C (endpoint: median survival time, dose: 50.0 mg/kg/injection, schedule: Q01DX005 (ip), vehicle: other) was 119 % of control and 164 % of control and the T/C (endpoint: median survival time, dose: 100.0 mg/kg/injection, schedule: Q01DX005 (ip), vehicle: other) was 112 % of control and 170 % of control.

With `CC1(C)N=C(N)N=C(N)N1c1ccc(CCCCc2ccc(S(=O)(=O)F)cc2Cl)c(Cl)c1` the T/C (endpoint: mean survival time, dose: 75.0 mg/kg/injection, schedule: Q01DX009 (ip), vehicle: saline with Tween-80) was 105 % of control and 156 % of control.
